The subject of assay [1] is H9 teratoma-derived LAM model cells, TSC2-/-. Nature of the assay: percent SyTOX+ dead cells; higher = more cytotoxic. To be noted: 5 µM, treatment time 72 h, culture: 3D hyaluronic acid hydrogel.
Assay [2] has as its system H9 teratoma-derived LAM model cells, WT. Description: percent SyTOX+ dead cells; higher = more cytotoxic. The conditions noted are these: 5 µM, treatment time 72 h, culture: 3D hyaluronic acid hydrogel, genotype: WT.
Assay [3] deals with H9 teratoma-derived LAM model cells, TSC2-/-. Nature of the assay: percent of cells invaded past median invasion distance of vehicle control; LAM is lymphangioleiomyomatosis; the cells come from teratomas of the human stem cell line H9; higher = more invasion; extreme values may be limits of the assay. To be noted: 5 µM, treatment time 72 h, culture: 3D hyaluronic acid hydrogel.
In assay [4] the test system is H9 teratoma-derived LAM model cells, WT. The description is as above. To be noted: 5 µM, treatment time 72 h, culture: 3D hyaluronic acid hydrogel, genotype: WT.

The list shows a part of the results. Single values are uncertain, as repeats are few or missing.

Here are results for eleven compounds from the supplement of paper PMC10502849.
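For percent SyTOX+ dead cells in this document: cells seeded atop a hyaluronic acid gel crosslinked via MMP-cleavable peptides, containing vitronectin peptides and methylcellulose, imaged live by high-content microscopy with automated analysis, one technical replicate per compound.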
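For percent of cells invaded past median invasion distance of vehicle control in this document: live cells imaged by high content microscopy and scored with in-house automated image analysis, one technical replicate per compound in each genotype and rapamycin condition.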

As to `CC#CC(=O)Nc1ccc2ncnc(Nc3cccc(Br)c3)c2c1`, the “percent SyTOX+ dead cells” value in assay [1] (rapamycin 0 nM) was 24.2%; in assay [1] (rapamycin 20 nM), 22.8%; in assay [2] (rapamycin 0 nM), 30.9%; in assay [2] (rapamycin 20 nM), 31%. For the same compound, the percent was found to be 10.5% in assay [3] (rapamycin 0 nM), 8.89% in assay [3] (rapamycin 20 nM), 9.93% in assay [4] (rapamycin 0 nM) and 8.08% in assay [4] (rapamycin 20 nM).
`Brc1c(Br)c(Br)c2n[nH]nc2c1Br`: the “percent SyTOX+ dead cells” value in assay [1] (rapamycin 0 nM) was 13.4%; in assay [1] (rapamycin 20 nM), 23.8%; in assay [2] (rapamycin 0 nM) it was 15.2%; in assay [2] (rapamycin 20 nM), 12.3%. The percent came out at 19.5% in assay [3] (rapamycin 0 nM), 11.4% in assay [3] (rapamycin 20 nM), 32.4% in assay [4] (rapamycin 0 nM) and 27.9% in assay [4] (rapamycin 20 nM).
`CNc1cc2c(Nc3cccc(Br)c3)ncnc2cn1`: the “percent SyTOX+ dead cells” value is 23.5% in assay [1] (rapamycin 0 nM), 20.9% in assay [1] (rapamycin 20 nM), 17% in assay [2] (rapamycin 0 nM) and 17.3% in assay [2] (rapamycin 20 nM). Further, the percent was 16.9% in assay [3] (rapamycin 0 nM), 11.9% in assay [3] (rapamycin 20 nM), 17.8% in assay [4] (rapamycin 0 nM) and 5.67% in assay [4] (rapamycin 20 nM).
For the compound `Cc1cc(I)ccc1Nc1c(C(=O)NOCC2CC2)cc(F)c(F)c1F`, the “percent SyTOX+ dead cells” value turned out to be 36.1% in assay [1] (rapamycin 0 nM), 42.7% in assay [1] (rapamycin 20 nM), 46.8% in assay [2] (rapamycin 0 nM) and 55.2% in assay [2] (rapamycin 20 nM). Also, the percent turned out to be 43.5% in assay [3] (rapamycin 0 nM), 38.3% in assay [3] (rapamycin 20 nM), 9.54% in assay [4] (rapamycin 0 nM) and 8.81% in assay [4] (rapamycin 20 nM).
For `CN(C)S(=O)(=O)c1ccc2c(c1)/C(=C/c1cc3c([nH]1)CCCC3)C(=O)N2`, the “percent SyTOX+ dead cells” value in assay [1] (rapamycin 0 nM) came to 61.3%; in assay [1] (rapamycin 20 nM) it was 61%; in assay [2] (rapamycin 0 nM) it was 60.1%; in assay [2] (rapamycin 20 nM), 59.3%. In addition, the percent was 51.1% in assay [3] (rapamycin 0 nM), 24.7% in assay [3] (rapamycin 20 nM), 41.8% in assay [4] (rapamycin 0 nM) and 10.8% in assay [4] (rapamycin 20 nM).
Regarding `Cn1cc(/C=C2\C(=O)Nc3cccnc32)c2ccccc21`, the “percent SyTOX+ dead cells” value in assay [1] (rapamycin 0 nM) was found to be 7.74%; in assay [1] (rapamycin 20 nM), 15.9%; in assay [2] (rapamycin 0 nM), 19.3%; in assay [2] (rapamycin 20 nM) it was 25%. The percent in assay [3] (rapamycin 0 nM) was 56.5%; in assay [3] (rapamycin 20 nM), 43.5%; in assay [4] (rapamycin 0 nM) it was 9.9%; in assay [4] (rapamycin 20 nM), 24.2%.
Take `Cc1cnc(-c2cnc(NCCNc3ccc(C#N)cn3)nc2-c2ccc(Cl)cc2Cl)[nH]1`: the “percent SyTOX+ dead cells” value in assay [1] (rapamycin 0 nM) is 10.1%; in assay [1] (rapamycin 20 nM), 12.7%; in assay [2] (rapamycin 0 nM) it was 11.7%; in assay [2] (rapamycin 20 nM), 10.7%. For the same compound, the percent in assay [3] (rapamycin 0 nM) stood at 12%; in assay [3] (rapamycin 20 nM), 33%; in assay [4] (rapamycin 0 nM) it was 11.3%; in assay [4] (rapamycin 20 nM), 53.3%.
`NS(=O)(=O)c1nn2cc(-c3ccccc3)nc2s1`: the “percent SyTOX+ dead cells” value in assay [1] (rapamycin 0 nM) was found to be 15.5%; in assay [1] (rapamycin 20 nM), 24.6%; in assay [2] (rapamycin 0 nM), 16.9%; in assay [2] (rapamycin 20 nM), 24.9%. Moreover, the percent was 40.4% in assay [3] (rapamycin 0 nM), 54.2% in assay [3] (rapamycin 20 nM), 13.1% in assay [4] (rapamycin 0 nM) and 12.1% in assay [4] (rapamycin 20 nM).
Take `Cc1cc(Nc2cc(C3CC3)[nH]n2)nc(Nc2ccc(CC#N)cc2)n1`: the “percent SyTOX+ dead cells” value stood at 44.2% in assay [1] (rapamycin 0 nM), 32.4% in assay [1] (rapamycin 20 nM), 74.9% in assay [2] (rapamycin 0 nM) and 45.5% in assay [2] (rapamycin 20 nM). Further, the percent in assay [3] (rapamycin 0 nM) is 0%; in assay [3] (rapamycin 20 nM), 12.2%; in assay [4] (rapamycin 0 nM), 0%; in assay [4] (rapamycin 20 nM) it was 0.32%.
For `O=C(c1ccc(C(=O)N2CCC(N3CCCC3)CC2)c(Nc2ccccc2)c1)N1CCC(N2CCCC2)CC1`, the “percent SyTOX+ dead cells” value was 20.4% in assay [1] (rapamycin 0 nM), 23.2% in assay [1] (rapamycin 20 nM), 23.9% in assay [2] (rapamycin 0 nM) and 19.1% in assay [2] (rapamycin 20 nM). The percent in assay [3] (rapamycin 0 nM) amounted to 5.93%; in assay [3] (rapamycin 20 nM) it was 3%; in assay [4] (rapamycin 0 nM) it was 0%; in assay [4] (rapamycin 20 nM), 0.89%.
Consider `Cc1nc(Nc2ncc(C(=O)Nc3c(C)cccc3Cl)s2)cc(N2CCN(CCO)CC2)n1`, for which the “percent SyTOX+ dead cells” value in assay [1] (rapamycin 0 nM) came to 35.6%; in assay [1] (rapamycin 20 nM), 26.9%; in assay [2] (rapamycin 0 nM), 56.5%; in assay [2] (rapamycin 20 nM), 71.7%. Moreover, the percent in assay [3] (rapamycin 0 nM), in assay [3] (rapamycin 20 nM), in assay [4] (rapamycin 0 nM) and in assay [4] (rapamycin 20 nM) was 0% throughout.
